Measured values reported in PubChem BioAssay AID1466 (National Center for Advancing Translational Sciences (NCATS), 2008).
Among all 200,000 compounds or so, about 10 (0.005%) were called active. This list was built around the results that the source calls inconclusive (neither active nor inactive); the mix of calls is not that of the screen. The call rests on the fitted dose curve; in most records, active means well fitted inhibition curve with a large enough effect; inconclusive means small, poorly fitted or top-dose-only effect, or effect the other way, or another doubt; inactive means no such curve, though single readings can be large or run the other way. Potencies of inconclusive entries are left out as doubtful fits.

Target: Lysosomal alpha-glucosidase (Homo sapiens) (UniProt P10253)
Assay: qHTS Assay for Inhibitors of Human alpha-Glucosidase as a Potential Chaperone Treatment of Pompe Disease;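 on activity change, negative = inhibition: plate controls were uninhibited enzyme wells for no effect and no-enzyme background for full effect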
Details: purified human GAA, 4-MU-alpha-glucoside fluorescence; activity change, negative = inhibition: at 76.9 µM (top of the series) unless noted
Method in brief: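 Fluorogenic assay: 4 nM human alpha-glucosidase with 400 uM 4-methylumbelliferyl-alpha-D-pyranoside in 50 mM citrate/phosphate, 0.005% Tween-20, pH 5.0, 20 min at room temperature. Compounds tested up to 77 uM; AC50 from Hill fits.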
Potency means the concentration at half of the fitted maximal effect; tags describe the fitted curve by direction and shape.

| SMILES | Potency | activity change, negative = inhibition |
| --- | --- | --- |
| COc1ccccc1NS(=O)(=O)c1cccc(C(=O)N/N=C/c2c(C)nn(-c3ccccc3)c2N2CCCC2)c1 | inconclusive [inhibitor, partial curve] | – |
| COc1ccc(OC)c(NC(=O)c2nnn(Cc3ccccc3C)c2N)c1 | inconclusive [inhibitor, partial curve] | – |
| CC(C)(C)c1cc(NC(=O)COC(=O)C2CC2)n(-c2ccccc2)n1 | inconclusive [inhibitor, single point] | – |
| CCn1c(=N)c(C(=O)NC)cc2c(=O)n3cccc(C)c3nc21 | inconclusive [activator, partial curve] | – |
| CC(C)NC(=O)Cn1c(SCC(=O)c2ccc(F)cc2)nc2ccccc21 | inconclusive [inhibitor, full curve] | – |
| COc1cc(NC(=O)SC2=NCCS2)cc(OC)c1 | inconclusive [inhibitor, single point] | – |
| CS(=O)(=O)Nc1nc2n(n1)C(c1ccccc1)C=C(c1ccc(Br)cc1)N2 (centres undefined) | inconclusive [activator, partial curve] | – |
| COc1ccc(CN(Cc2cc3ccc(C)cc3[nH]c2=O)Cc2nnnn2C2CCCC2)cc1 | inconclusive [inhibitor, single point] | – |
| CCCCn1c(SCC(=O)/C(C#N)=C(\C)N)nc2ccccc2c1=O | inconclusive [inhibitor, single point] | – |
| CC(/C=N/n1c(-c2cccnc2)n[nH]c1=S)=C\c1ccccc1 | inconclusive [inhibitor, single point] | – |
| O=c1c2ccccc2nc(SCCN2CCCCC2)n1CCc1ccccc1 | – | inconclusive: 20.7% [activator] |
| O=C(NCc1cccs1)C1CCC(CNS(=O)(=O)c2ccc(Br)s2)CC1 (centres undefined) | inconclusive [inhibitor, single point] | – |
| CCOC(=O)c1csc(-n2nc(C)cc2C(F)(F)F)n1 | inconclusive [inhibitor, single point] | – |
| Cc1ccc2cc(C#N)c(NCc3ccccc3)nc2c1 | – | inconclusive: 10.4% [activator] |
| Cc1ccc2nc(S(=O)(=O)O)[nH]c2c1 | inconclusive [inhibitor, full curve, poor fit] | – |
| CCCOc1ccc(/C(O)=C2/C(=O)C(=O)N(CCCn3ccnc3)C2c2cccs2)cc1 (centres undefined) | inconclusive [inhibitor, full curve] | – |
| CN(C(=O)N1CCN(S(=O)(=O)c2ccccc2)CC1)c1ccccc1 | active: 35.5 µM | – |
| COc1ccc2nc(N3CCOCC3)cc(C)c2c1 | inconclusive [activator, partial curve] | – |
| COCCNC(=O)CCn1c(=O)oc2ccccc21 | – | inconclusive: 9.16% [activator] |
| CCCc1nc2ccc(NC(C)=O)cc2c(=O)n1Cc1ccc(Cl)cc1 | inconclusive [inhibitor, full curve] | – |
| CCOC(=O)Cn1nnc2c(sc3nc4c(c(-c5ccc(Cl)cc5)c32)CCC4)c1=O | inconclusive [inhibitor, full curve, poor fit] | – |
| Cc1ccc(CNc2ccc3c(c2)OCO3)c(C)c1 | inactive | – |

| SMILES | Potency | activity change, negative = inhibition |
| --- | --- | --- |
| S=C(NCc1ccc2[nH]c3c(c2c1)CCCC3)Nc1ccccc1 | inconclusive [inhibitor, single point] | – |
| Cc1ccc(-c2ccc(C(=O)Nc3cccc(F)c3)o2)c2ccccc12 | inconclusive [activator, partial curve] | – |
| O=C(Nc1cccc(F)c1)c1cc(S(=O)(=O)N2CCOCC2)cs1 | – | inconclusive: 16.3% [activator] |
| COCCN1C=C(C(=O)OC)C(c2ccccc2Cl)C(C(=O)OC)=C1 | inconclusive [activator, partial curve] | – |
| CC1CCCCN1C(=O)CSc1nnc(-c2c[nH]c3ccccc23)o1 (centres undefined) | inconclusive [inhibitor, single point] | – |
| O=C(Nc1cccc(-c2cn3cccnc3n2)c1)c1cccs1 | inconclusive [activator, partial curve] | – |
| COc1ccccc1-c1nnc2sc(-c3cc4ccccc4o3)nn12 | inconclusive [inhibitor, full curve, poor fit] | – |
| CC(=O)Nc1cccc(-c2nc3ccc(NC(C)=O)cc3s2)c1 | – | inconclusive: 15.7% [activator] |
| O=C(O)c1cc(-c2ccc(Cl)s2)nc2ccccc12 | inconclusive [activator, partial curve] | – |
| CNC(=S)N1N=C(c2ccc(C)cc2)CC1c1ccc(OC)c(OC)c1 (centres undefined) | inconclusive [inhibitor, single point] | – |
| Cc1cc(C)c(S(=O)(=O)Nc2ccc3[nH]c(=O)[nH]c3c2)c(C)c1 | inconclusive [inhibitor, partial curve] | – |
| O=C(CSc1nc2ccccc2s1)Nc1ccc(Cl)c(C(=O)O)c1 | inconclusive [inhibitor, single point] | – |
| COc1ccc(N2CCN(Cc3nnnn3C3CCCCC3)CC2)cc1 | – | inconclusive: 12.5% [activator] |
| Cc1cc(N/C(=N/S(=O)(=O)c2cc(F)ccc2F)c2ccccc2)n(-c2ccccc2)n1 | inconclusive [inhibitor, single point] | – |
| COc1cccc(OCC(=O)Nc2ccccc2-c2ccccc2)c1 | – | inconclusive: 7.62% [activator] |
| Cc1cc(C)nc(/N=C(\N)Nc2ccc3c(c2)OCCO3)n1 | – | inconclusive: 17.8% [activator] |
| CC(C)CCN1CCN(Cc2nc(-c3ccccc3)cs2)CC1CCO (centres undefined) | – | inconclusive: 16% [activator] |
| COC(=O)c1ccc(-c2noc(CN3CCCCC3c3nccn3C)n2)cc1 (centres undefined) | inconclusive [inhibitor, single point] | – |
| Cc1cccc2nc(COc3ccc(-c4ccccc4)cc3)cn12 | inconclusive [inhibitor, full curve, poor fit] | – |
| c1cncc(-c2nc(NCCCN3CCOCC3)c3c4c(sc3n2)CCC4)c1 | inconclusive [activator, single point] | – |
| CCCN1Cc2cccc(C(=O)NCc3ccc(C)cc3)c2C1=O | inconclusive [inhibitor, single point] | – |
| Cc1nc(N2CCC(C)CC2)c2c(C)c(C(=O)Nc3ccc(C(F)(F)F)cc3)sc2n1 | inconclusive [activator, single point] | – |

| SMILES | Potency | activity change, negative = inhibition |
| --- | --- | --- |
| COc1ccc(S(=O)(=O)N(CC(=O)Nc2ccc3c(c2)OCO3)c2ccccc2OC)cc1 | inconclusive [inhibitor, single point] | – |
| CC(C)NC(=O)CN1CCN(Cc2nc(-c3cccs3)no2)CC1 | inactive | – |
| O=C(CSc1ccccn1)N/N=C/c1cccc([N+](=O)[O-])c1 | inconclusive [inhibitor, single point] | – |
| CCOc1ccc(N(CC(=O)NCCc2ccc(Cl)cc2)S(=O)(=O)c2c(C)[nH]c(=O)[nH]c2=O)cc1 | inactive | – |
| CC1CCN(C2CC(=O)N(c3ccccc3)C2=O)CC1 (centres undefined) | – | inconclusive: 11.1% [activator] |
| O=C(O)CN1C(=O)C2C3CC(C2C1=O)C1C(c2ccccc2)c2sc(=O)[nH]c2SC31 (centres undefined) | inactive | – |
| COc1cccc(C(=O)Nc2ccc(N3CCN(S(C)(=O)=O)CC3)cc2)c1 | inconclusive [inhibitor, partial curve] | – |
| O=C(CCc1ccc(S(=O)(=O)N2CCOCC2)cc1)N/N=C/c1ccc(O)c(O)c1O | inconclusive [inhibitor, partial curve] | – |
| CCCC(=O)Nn1cnc2c(c1=O)C1(CCCC1)Cc1ccccc1-2 | inconclusive [inhibitor, single point] | – |
| Cc1ccc2c(c1)cc(CN(Cc1ccco1)C(=O)N1CCOCC1)c1nnnn12 | – | inconclusive: 18.5% [activator] |
| Cc1cc([N+](=O)[O-])ccc1NC(=O)/C=C/c1cccs1 | inconclusive [inhibitor, single point] | – |
| O=c1[nH]c2cc3c(cc2cc1C(c1nnnn1CC1CCCO1)N1CCCC1)OCO3 (centres undefined) | inconclusive [activator, single point] | – |
| CSC1=N/C(=C\c2cccc(Cl)c2)C(=O)N1N(C)C | inconclusive [inhibitor, single point] | – |
| Clc1cccc2c1CCN(Cc1nc(-c3cnccn3)no1)C2 | inconclusive [inhibitor, single point] | – |
| O=C(N/N=C1\CCCc2ccccc21)c1cccc(Br)c1 | inconclusive [inhibitor, single point] | – |
| CCN(c1ccccc1)S(=O)(=O)c1ccc(Cl)c(NC(=O)COC(=O)c2ccc(O)cc2)c1 | inconclusive [inhibitor, single point] | – |
| O=C(NCC(c1cccnc1)N1CCN(c2ccc(F)cc2)CC1)c1cccc(Cl)c1 (centres undefined) | – | inconclusive: 17.1% [activator] |
| COc1ccc(-n2nc(N)c(C(N)=O)n2)cc1 | inconclusive [activator, partial curve] | – |
| Cn1nnc2c(sc3nc(N4CCOCC4)c4c(c32)CCCC4)c1=O | inconclusive [inhibitor, single point] | – |
| CC1CCN(c2nc3c(c(=O)[nH]c(=O)n3C)n2Cc2ccccc2Cl)CC1 | inconclusive [inhibitor, single point] | – |
